Reference: BigSolDB 2.1

O=C(O)C1=C[C@@H](O)[C@@H](O)[C@H](O)C1
Conditions	solubility (mole fraction)
in ethanol, 297.45 K	0.00446
in ethanol, 302.65 K	0.00526
in ethanol, 307.75 K	0.00634
in ethanol, 312.45 K	0.00721
in ethanol, 317.55 K	0.00855
in ethanol, 322.25 K	0.01
in ethanol, 327.85 K	0.0118
in ethanol, 332.55 K	0.0139
in ethanol, 337.35 K	0.0159
in ethanol, 342.55 K	0.019
in ethanol, 348.15 K	0.0228
in isopropanol, 303.75 K	0.00099
in isopropanol, 308.95 K	0.00142
in isopropanol, 313.75 K	0.00229
in isopropanol, 319.15 K	0.00291
in isopropanol, 323.25 K	0.00412
in isopropanol, 328.25 K	0.00583
in isopropanol, 333.25 K	0.00736
in isopropanol, 337.95 K	0.00906
in isopropanol, 342.75 K	0.011
in isopropanol, 347.25 K	0.0131
in isopropanol, 352.45 K	0.0161
in n-heptane, 302.15 K	0.00343
in n-heptane, 313.65 K	0.00455
in n-heptane, 323.25 K	0.00667
in n-heptane, 328.35 K	0.00733
in n-heptane, 337.75 K	0.00969
in n-heptane, 342.65 K	0.00993
in n-heptane, 348.05 K	0.0108
in n-heptane, 352.45 K	0.0121
in n-pentanol, 304.45 K	0.00128
in n-pentanol, 313.65 K	0.00212
in n-pentanol, 323.75 K	0.00318
in n-pentanol, 328.55 K	0.00402
in n-pentanol, 332.95 K	0.0051
in n-pentanol, 338.25 K	0.00634
in n-pentanol, 342.75 K	0.00759
in n-pentanol, 352.55 K	0.0113
in n-pentanol, 357.15 K	0.014
in n-pentanol, 362.05 K	0.0172
in n-propanol, 308.15 K	0.00088
in n-propanol, 313.65 K	0.00124
in n-propanol, 318.15 K	0.0017
in n-propanol, 323.35 K	0.00217
in n-propanol, 328.55 K	0.00317
in n-propanol, 333.15 K	0.0039
in n-propanol, 337.85 K	0.00487
in n-propanol, 343.65 K	0.00661
in n-propanol, 347.55 K	0.00829
in n-propanol, 352.65 K	0.0104
in n-propanol, 357.25 K	0.0123
in n-propanol, 362.15 K	0.0156
in water, 299.55 K	0.0248
in water, 303.65 K	0.0274
in water, 308.75 K	0.0323
in water, 313.85 K	0.0374
in water, 318.45 K	0.0427
in water, 323.45 K	0.0484
in water, 328.75 K	0.0563
in water, 333.05 K	0.0637
in water, 337.05 K	0.0695
in water, 342.55 K	0.0807
in water, 352.45 K	0.102
in water, 362.15 K	0.125
